Out of some 48,000 compounds screened, about 1,200 (2.5%) were called active. Not shown: some 2% with an inconclusive outcome.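 Rule for the calls: active = activation of at least 60% and not above a set upper limit (about 1 call in 100 departs from these limits); inconclusive = activation of 40% to 60%, or above that upper limit; inactive = activation under 40%.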 The list shows a part of the results.

Chain of UniProt O75388 (O75388 whole entry, looked up): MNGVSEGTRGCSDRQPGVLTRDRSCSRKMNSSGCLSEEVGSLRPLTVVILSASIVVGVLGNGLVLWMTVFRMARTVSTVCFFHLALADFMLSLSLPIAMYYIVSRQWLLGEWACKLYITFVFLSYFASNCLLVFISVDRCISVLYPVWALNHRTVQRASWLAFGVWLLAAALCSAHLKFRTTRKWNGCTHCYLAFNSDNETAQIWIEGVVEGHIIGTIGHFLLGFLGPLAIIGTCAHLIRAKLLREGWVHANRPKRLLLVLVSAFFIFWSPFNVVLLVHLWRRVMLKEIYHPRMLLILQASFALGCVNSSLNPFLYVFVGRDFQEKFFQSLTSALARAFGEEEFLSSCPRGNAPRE

This assay concerns the target Probable G-protein coupled receptor 32 (Homo sapiens) (UniProt O75388). Put plainly: qHTS for Agonists of Human Resolvin D1 Receptor DRV1. Note: 0% is about no effect. The conditions noted are these: CHO-K1 GPR32 beta-arrestin PathHunter luminescence, 90 min; at 76.9 µM; stronger effect = higher value; zero percent set by DMSO-only wells. Summed up:
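PathHunter beta-arrestin recruitment in CHO-K1 cells stably expressing ProLink-tagged GPR32. Cells were exposed to compound for 90 min at 37 C, then chemiluminescence was read after 1 h detection at ambient temperature; DMSO served as basal control.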
Background: In qHTS, concentration-response curves come from the screen itself.
As for `CCOc1ccc(NC(=O)CSc2nc3ccsc3c(=O)n2CCCCCC(=O)O)cc1`, the activation is inactive: -18.8%. As to `O=C(CSc1nc2c(c(=O)[nH]1)CN(Cc1ccc3c(c1)OCO3)CC2)Nc1ccccc1Cl`, the activation is inactive: 36.8%. For `Nc1ccc(C(=O)Oc2ccccc2)c(O)c1`, the activation is inactive: 4.38%. In the case of `CCc1nn2c(=O)c(S(=O)(=O)Nc3ccc(C(C)C)cc3)c(C)nc2s1` it was inactive: 13%; in that of `CCc1ccc(-n2nc3ccc(NC(=O)COc4ccc(OC)cc4)cc3n2)cc1`, inactive: -7.81%; in that of `CNNCc1ccc(C(=O)NC(C)C)cc1`, inactive: -16.8%.

For `COc1cccc(Cn2c(CNS(=O)(=O)c3ccc(Cl)s3)nc3cccnc32)c1`, the activation was inactive: -18.3%. Take `O=C(Nc1cccc(F)c1)c1oc2ccccc2c1NC(=O)C12CC3CC(CC(C3)C1)C2`: the activation is inactive: 0.958%.

On to `CCCCCn1cc2c(c1-c1ccccc1Br)c(=O)n(C)c(=O)n2C`, for which the activation is inactive: -26.4%. Regarding `O=S(=O)(c1ccccc1)c1nnn2c1nc(NCc1ccccc1)c1cc(Cl)ccc12`, the activation is inactive: -16.6%.

Turning to `CC(C)c1ccc(NC(=O)CCS(=O)(=O)c2ccc3c(c2)CC(=O)N3C)cc1`, the activation is inactive: 27.2%. Turning to `Cc1nc2nc(C)c(CCC(=O)NCc3ccccc3)c(C)n2n1`, the activation is inactive: -3.07%. `CCOc1ccc2ncc3c(-c4cccc(OC)c4)nn(-c4ccccc4)c3c2c1`: the activation was inactive: 13.7%. In the case of `Cc1ccc2occ(CC(=O)Nc3ccc(S(=O)(=O)N4CCC(C)CC4)cc3)c2c1` it was inactive: -4.11%; in that of `CCC(C)NC(=O)Cn1c(=O)n(Cc2ccc(C(=O)NCc3ccc(C)cc3)cc2)c(=O)c2ccccc21` (stereo not drawn), inactive: -12.4%; in that of `COc1cccc(Cc2nc3ccccc3nc2SCC(=O)Nc2cc(OC)ccc2OC)c1`, inactive: -6.36%.

`CCOc1cc(-c2ccc(OC(=O)c3ccccc3)c(OC)c2)cc(=O)c2c(C)oc(C)c12`: the activation was inactive: -20.2%.

In the case of `CCOCCn1ccc2c(OCC(=O)Nc3cccc(F)c3)cccc2c1=O`, the activation was active: 76.8%.

With `CCOc1ccccc1CNCCSc1nnnn1C`, the activation was inactive: 16.9%. `O=c1c2sc3ccccc3c2n(Cc2ccccc2)c(=O)n1CCc1ccccc1`: the activation was inactive: -16.9%.

Regarding `COc1ccc(C)cc1Nc1ncnc2c1c(-c1ccccc1)cn2-c1ccc(C)cc1`, the activation is inactive: -33.3%. As for `CCN(CCCNC(=O)CN1N=C(c2ccccc2)CCC1=O)c1ccccc1`, the activation is inactive: -21.2%. In the case of `Cc1ccc(C2c3c(oc4ccccc4c3=O)C(=O)N2c2nnc(C)s2)cc1` (stereo not drawn), the activation is inactive: -0.0204%. As to `COc1ccc(OC)c2sc(N3CCN(C(=O)C4COc5ccccc5O4)CC3)nc12` (stereo not drawn), the activation was inactive: -8.8%. Turning to `COc1ccc(S(=O)(=O)N2CCC(C(=O)Nc3cc(C(F)(F)F)ccc3Cl)CC2)cc1`, the activation was inactive: -6.39%. As to `O=c1[nH]c(=O)n([C@H]2C[C@H](O)[C@@H](CO)O2)cc1F`, the activation is inactive: 5.27%.

`Cc1cc(C)c2sc(N3CCN(C(=O)c4ccc(N(C)C)cc4)CC3)nc2c1`: the activation was inactive: 11.4%. Regarding `Cc1ccc(S(=O)(=O)c2c(O)cc(C)c(NS(=O)(=O)c3ccc(Cl)cc3)c2C)cc1`, the activation is inactive: 31.8%. The same measure for `COc1ccccc1N1CCN(S(=O)(=O)c2c(C)nc3sccn3c2=O)CC1`: inactive: 0.174%. For the compound `CCCCCCCCCCCCCCCCCC(=O)OCC(O)CO` (stereo not drawn), the activation is inactive: 0.0055%. With `CC(C)c1nn2c(=O)cc(COC(=O)c3ccco3)nc2s1`, the activation is inactive: -39.4%.

Turning to `COc1ccccc1C(=O)Nc1ccc(C(=O)OCc2cc(=O)n3nc(C4CC4)sc3n2)cc1`, the activation was inactive: -1%.

As for `O=C(CSc1nc(=O)[nH]c2c1CCCC2)NCc1ccccc1`, the activation is inactive: -4.08%. For `COc1ccc(N2C(=O)CSC23C(=O)N(CC(=O)NCCc2ccccc2)c2ccccc23)cc1` (stereo not drawn), the activation is inactive: 25.5%.

Turning to `Cc1c(C)c2cc3c(c(C)c2oc1=O)OCN(CCc1ccc(F)cc1)C3`, the activation was inactive: -20.8%. In the case of `Cc1nn2c(C)c(C(=O)NC(C)(C)C)cnc2c1-c1ccc(F)cc1` it was inactive: -16.1%; in that of `Cc1ccc(N2CC(NC(=O)c3cc4ccccc4o3)CC2=O)cc1` (stereo not drawn), inactive: -13.5%; in that of `CCc1ccc(Cn2c(CNS(=O)(=O)c3ccc(C)c(C)c3)nc3cccnc32)cc1`, inactive: -28.7%. As to `CCCCNC(=O)c1cc2n(n1)CCCN(Cc1ccc(C)cc1)C2=O`, the activation is inactive: 7.46%. On to `CCOc1ccc(C(=O)Nc2ccc3oc(-c4ccc5ccccc5c4)nc3c2)cc1`, for which the activation is inactive: 2.14%. In the case of `COc1ccc(NC(=O)Cn2c(=O)n(Cc3ccccc3)c(=O)c3sc4ccccc4c32)cc1`, the activation is inactive: -0.398%. `CC1=C(C(=O)Nc2ccccc2C)C(c2ccccn2)n2ncnc2N1` (stereo not drawn): the activation was inactive: 19.1%.

Turning to `CCC(=O)C1=C(c2ccc(C)cc2)N(C(=O)CC)n2c(nnc2C2CCCCC2)S1`, the activation was inactive: -39.1%. Turning to `CC(=O)N1CCc2cc(S(=O)(=O)NC(CC(C)C)C(=O)Nc3cc(C)cc(C)c3)ccc21` (stereo not drawn), the activation is inactive: -4.15%. Regarding `Cc1cccc(C)c1NC(=O)CS(=O)(=O)c1nc(-c2ccc(Cl)cc2)cn1-c1ccccc1`, the activation is inactive: -27.5%. Regarding `CCOc1ccc(Cn2c(=O)sc3ccccc32)cc1`, the activation is inactive: -3.83%. For the compound `Cc1cccn2c(=O)c3cc(C#N)c(=O)n(-c4nnc(SCc5ccc(Cl)cc5)s4)c3nc12`, the activation is inactive: -3.7%. With `Cc1c(Cl)cccc1NC(=O)CCOc1ccccc1`, the activation was inactive: -1.71%. Turning to `Cc1ccc(C)c(Cn2c(=O)c3c(nc4n3CCN4c3ccccc3)n(C)c2=O)c1`, the activation was inactive: -2.47%. The same measure for `Cc1ccc(NC(=O)CN2C(=O)COc3ccc(S(=O)(=O)NC4CCCC4)cc32)cc1N(C)C`: inactive: 4.72%; for `Cc1cc(C)c2c(c1)c(C)cc1nnc(SCc3ccccc3C#N)n12`: inactive: -14.8%; for `CC1=C(C(=O)Nc2ccc(Cl)cc2)C(c2ccccc2)n2ncc(C(=O)Nc3ccccc3)c2N1` (stereo not drawn): inactive: -23.3%. Consider `Cc1ccc(C)c(-c2ccc(=O)n(Cc3c(F)cccc3Cl)n2)c1`, for which the activation is inactive: 11.9%.

For `COc1ccc(NC(=O)CSc2nc(-c3cccc(C)c3)[nH]c2-c2ccccc2)cc1OC`, the activation was inactive: -9.87%.

`CC(=O)N1CCc2c(sc3c2c(=O)n(CCc2ccccc2)c(=O)n3Cc2ccccc2C)C1`: the activation is inactive: -14.5%. In the case of `CCSc1ncc(Cl)c(C(=O)Nc2sc3c(c2C(=O)NCCCOC)CCCC3)n1` it was inactive: -5.39%.

For `CCN(CC)S(=O)(=O)c1ccc2c(c1)c(=O)c(C(=O)N1CCN(c3cc(Cl)ccc3C)CC1)cn2C`, the activation is inactive: -1.17%. Turning to `CC(C)Sc1ncc(Cl)c(C(=O)Nc2ccc(S(=O)(=O)N3CCCCC3)cc2)n1`, the activation was inactive: -48%. As to `CC(C)c1noc(-c2ccccc2OCC(=O)Nc2cccc([N+](=O)[O-])c2)n1`, the activation was inactive: -21.9%.

In the case of `O=C(Oc1ccccc1F)c1nc(SCc2ccc(F)cc2)ncc1Cl`, the activation was inactive: -4.41%. In the case of `CCOc1ccc(Nc2c(S(=O)(=O)c3ccccc3)cnc3ccc(F)cc23)cc1`, the activation is inactive: -44.8%.

`Cc1ccc(NC(=O)C2CCN(S(=O)(=O)c3cccc4nonc34)CC2)cc1C`: the activation was active: 101%.

With `COc1cc(C2CC(=O)Oc3c2c(=O)[nH]c2ccccc32)cc(OC)c1OC` (stereo not drawn), the activation was inactive: 38.1%. With `Cc1ccc(-c2cc3nc(-c4ccccc4)cc(C(F)(F)F)n3n2)cc1`, the activation was inactive: -4.79%. For `CCOc1ccc(-c2c(C)nn3c(C)c(C(=O)Nc4cc(C)cc(C)c4)cnc23)cc1OCC`, the activation was inactive: -0.715%. As to `CC(=O)N1CCc2cc(Br)cc(S(=O)(=O)CCC(=O)N3CCN(c4ccccc4Cl)CC3)c21`, the activation is inactive: -2.22%. Consider `COc1ccc(-c2nc3scc(CCNS(=O)(=O)c4ccc5c(c4)OCCO5)n3n2)cc1`, for which the activation was inactive: 17.1%. For the compound `Cc1ccc(CN(C(=O)COc2cc(C)c(Cl)c(C)c2)c2ccccn2)o1`, the activation was inactive: 13.1%.

As for `CCN1CCc2c(sc(-n3cccc3)c2C(C)NC(=O)Nc2ccc(Br)cc2)C1` (stereo not drawn), the activation was inactive: -23.8%. On to `COc1ccc(NC(=O)Cn2cc(S(=O)(=O)c3ccccc3)c(=O)c3cc4c(cc32)OCO4)cc1`, for which the activation was inactive: -9.64%. Turning to `Cc1cccc(N2CCN(C(=O)C3CCN(S(=O)(=O)c4c(C)noc4C)CC3)CC2C)c1` (stereo not drawn), the activation is active: 108%.

As to `COc1ccc(N(Cc2cccs2)C(=O)c2ccc(OC)c(Cl)c2)cc1`, the activation is inactive: -19.6%. The same measure for `CCCC(=O)OCc1cnc(C)c2oc(=O)c(C(=O)Nc3cccc(C(F)(F)F)c3)cc12`: inactive: 2.32%; for `CCC(=O)Nc1ccccc1-c1nc2ccccc2n(CC(=O)Nc2ccccc2OC)c1=O`: inactive: -9.11%. On to `CCCS(=O)(=O)c1c(S(=O)(=O)CCC)c2cc(C(C)(C)C)ccn2c1C(=O)c1ccccc1`, for which the activation is inactive: -16.6%. `Cc1c(C(=O)Nc2ccccc2)sc2nc(-c3cc4cc(Cl)ccc4oc3=O)[nH]c(=O)c12`: the activation was inactive: -3.31%. Take `COc1cccc(N2CCN(C(=O)C3CCN(S(=O)(=O)c4c(C)noc4/C=C/c4ccccc4F)CC3)CC2)c1`: the activation was inactive: -15.4%.

`COC(=O)c1ccc(NC(=O)CC2C(=O)N(c3ccccc3)C(=O)N2Cc2ccc(F)cc2)cc1` (stereo not drawn): the activation is inactive: -15.9%. In the case of `Cc1ccccc1C(=O)Nc1ccc2nc(N3CCCCC3)cc(C)c2c1` it was inactive: -11.4%; in that of `COc1cccc(N2CCN(C(=O)c3cc4c(s3)-c3ccccc3OC4)CC2)c1`, inactive: -17.3%; in that of `CC(C)(C)C(=O)NCC(c1ccc2c(c1)OCO2)N1CCOCC1` (stereo not drawn), inactive: -8.79%.

As for `O=C(CSc1nnc(-c2cccs2)o1)Oc1ccccc1Cl`, the activation is inactive: 9.07%.

In the case of `CCN(CC)C(=O)c1sc2c(c1C)c(=O)n(CCc1ccccc1)c(=O)n2Cc1cc(C)ccc1C`, the activation was inactive: -31.8%.

The values above are taken from PubChem BioAssay AID1346428 (National Center for Advancing Translational Sciences (NCATS), 2018).
